# Data from PubChem BioAssay AID504832 (National Center for Advancing Translational Sciences (NCATS), 2011).
# About 18,000 (5.8%) of roughly 310,000 compounds were called active. The inconclusive results got no clear call from the source; some entries with a clear call stand among them for comparison. Calls follow the shape of the dose curve; as a rule, active = well fitted inhibition curve with a large enough effect; inconclusive = small, poorly fitted or top-dose-only effect, or another doubt; inactive = no such curve, though single readings can be large or run the other way. Potencies of inconclusive entries are left out as doubtful fits.
# Experiment: Primary qHTS for delayed death inhibitors of the malarial parasite plastid, 48 hour incubation
# Details: P. falciparum luciferase growth in erythrocytes; series mostly up to 28.7 µM
# Method in brief: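 Compounds are pin-transferred into medium, infected erythrocytes (2% hematocrit, 0.1% parasitemia final) are added, and plates sit one parasite generation at 37 C in 5% CO2. Detection reagent is then added and luminescence measured.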
# Potency is read from the fitted curve at half-maximal effect; tags tell the direction and shape of the fitted curve.
row,Structure (SMILES),Potency
1,CCOC(=O)CC(=O)NC(C)(C)CCCCC(C)(C)NC(=O)CC(=O)OCC,inactive
2,O=C(NNC(=O)C12CC3CC(CC(Cl)(C3)C1)C2)c1csc(N2CCOCC2)n1,"inconclusive [inhibitor, single point]"
3,CC(CC(F)(F)F)N1CCC(n2nccc2NC(=O)CCCc2ccccc2)CC1 (stereo unspecified),inactive
4,COc1ccc(-c2ocnc2C(=O)N2CCN(C(=O)C(c3ccccc3)c3ccccc3)CC2)cc1,"inconclusive [inhibitor, partial curve, poor fit]"
5,CC(C)(C)c1ccc(-c2nc(C#N)c(NCCCn3ccnc3)o2)cc1,"inconclusive [inhibitor, partial curve, poor fit]"
6,CCc1cc(C(=O)N2CCN(c3ncccn3)CC2)sc1C,"inconclusive [inhibitor, single point]"
7,Cc1cccc(NS(=O)(=O)c2cccc(C(=O)Nc3cccc(C(=O)O)c3)c2)c1,inactive
8,CCCC(=O)Nc1cccc2c1CCCC2,inactive
9,Cc1ccc(C(=O)N2CCN(c3ccc(Cl)cc3)CC2)cc1,inactive
10,CC1CN(S(=O)(=O)c2ccc(CN3C(=O)c4cccnc4C3=O)cc2)c2ccccc2O1 (stereo unspecified),inactive
11,O=C(O)C1(S(=O)(=O)c2ccc(Cl)cc2)CCC1,inactive
12,CC(C)NC(=S)N/N=C1\CCCCc2ccccc21,"inconclusive [inhibitor, partial curve]"
13,Cc1ccccc1NC(=O)/C(=C/c1ccccc1)c1ccccc1,"inconclusive [inhibitor, single point]"
14,COCCOC(=O)c1c(C)oc2ccc(O)c(CN3CCC(C)CC3)c12,"inconclusive [inhibitor, single point]"
15,CCC(CNc1cc(OC)cc2cccnc12)NC1CCCCC1 (stereo unspecified),"inconclusive [inhibitor, full curve, poor fit]"
16,CCCCOc1cccc(C2C(C(=O)c3cccs3)=C(O)C(=O)N2Cc2cccnc2)c1 (stereo unspecified),inactive
17,COc1ccc(CN=C2NC(=O)CC(C(=O)Nc3ccc([N+](=O)[O-])cc3C)S2)cc1 (stereo unspecified),"inconclusive [inhibitor, single point]"
18,CCOC(=O)[C@H]1[C@H]2COc3ccc(Br)cc3[C@@H]2N2C(=O)CN(Cc3ccc(F)cc3)C(=O)[C@@]12C,active: 13.1 µM
19,Cc1ccc(S(=O)(=O)NCCC(=O)N(C)Cc2cccs2)cc1,"inconclusive [inhibitor, single point]"
20,CC1(C)Cc2c(sc(NC(=O)c3ccc(C(=O)c4ccccc4)cc3)c2C(N)=O)C(C)(C)N1,"inconclusive [inhibitor, single point]"
21,O=C(C1CCC(CNS(=O)(=O)c2cccc3nsnc23)CC1)N1CCN(c2ccccn2)CC1 (stereo unspecified),"inconclusive [inhibitor, partial curve, poor fit]"
22,Cc1cc(NC(=O)CCN2CCN(C/C=C/c3ccccc3)CC2)ccc1Br,"inconclusive [inhibitor, partial curve, poor fit]"
23,CCCC[N+]12C3C[C@H](C4[C@H](O)[C@]5(C[C@@H]41)c1ccccc1N(C)[C@@H]35)[C@H](CC)[C@H]2O (stereo partly specified),active: 13.1 µM

row,Structure (SMILES),Potency
1,CCCc1cc(=O)oc2cc(C)cc(OCC(=O)NCc3ccccn3)c12,"inconclusive [inhibitor, full curve, poor fit]"
2,S=c1[nH]cnc2sc(Nc3ccccc3)nc12,inactive
3,COC(=O)c1ccc(COC(=O)C(CCS(C)(=O)=O)N2C(=O)c3ccccc3C2=O)cc1 (stereo unspecified),inactive
4,COc1ccc(CCNC(=O)c2ccc(Cl)c(S(=O)(=O)N(C)c3ccccc3)c2)cc1,"inconclusive [inhibitor, single point]"
5,C=CCN(C(=O)c1cccc(N2C(=O)C3CC=CC(C)C3C2=O)c1)c1ccccc1 (stereo unspecified),"inconclusive [inhibitor, single point]"
6,CC(C)(C)C(=O)Nc1ccccc1C(=O)NCCC(=O)Nc1ccccc1,"inconclusive [inhibitor, single point]"
7,N#Cc1nc(-c2ccccc2)oc1N1CCC(C(N)=O)CC1,"inconclusive [inhibitor, single point]"
8,CC(C)c1ccc(CN(C(=O)c2cc3ccccc3oc2=O)C2CCS(=O)(=O)C2)cc1 (stereo unspecified),inactive
9,CCCN(Cc1ccccc1)C(=S)Nc1cccc(C(F)(F)F)c1,inactive
10,c1ccc2c(c1)CCOC2CNCCCN1CCCCC1 (stereo unspecified),"inconclusive [inhibitor, single point]"
11,CCN(c1ccccc1)S(=O)(=O)c1ccc(C(=O)NCC2(N(C)C)CCCCC2)cc1,"inconclusive [inhibitor, single point]"
12,CCOC(=O)N1CCC(Nc2c(-c3ccc(C)cc3)c(=O)c2=O)CC1,inactive
13,CC(C)(O)C(Cl)(Cl)Cl,active: 2.69 µM
14,CC(C)c1cccc(C(C)C)c1OC(=O)NC(=O)c1c(F)cccc1F,"inconclusive [inhibitor, single point]"
15,CCN(CC)CCC(c1cc(OC)c(OC)c(OC)c1)c1c(OC)cc(OC)c2c(C)cc(=O)oc12 (stereo unspecified),active: 9.28 µM
16,CCCCCOc1ccc(/C(C)=N/NC2=NCCN2)cc1,active: 7.38 µM
17,Cc1cc(F)ccc1NC(=O)c1cc(S(=O)(=O)N2CCc3ccccc32)cn1C,"inconclusive [inhibitor, partial curve, poor fit]"
18,CCOCCCNC(=O)CN1CCN(c2ccc(F)cc2)CC1,inactive
19,Nc1ccccc1S(=O)(=O)C(F)F,inactive
20,CC(OC(=O)c1ccncc1)C(=O)Nc1cc(S(=O)(=O)N2CCCCC2)ccc1Cl (stereo unspecified),inactive
21,COc1ccc(CC(=O)OCC(=O)c2c[nH]c3ccccc23)cc1,active: 8.28 µM
22,O=C(CSc1ccccc1)OCC(=O)N1CCN(C(=O)c2ccco2)CC1,"inconclusive [inhibitor, single point]"
23,CN(C)CCCN(C(=O)C1=COCCO1)c1nc2ccc(Br)cc2s1,"inconclusive [inhibitor, single point]"
